In all, about 110,000 compounds were measured (“z-score”: median about -0.1, highest 2% from about 2 on). This is one part of the list.

In the experiment the target is Metabotropic glutamate receptor 8 (Rattus norvegicus) (UniProt P70579). Description: rat mGluR8 modulators via GIRK flux, primary screen, cell-based, thallium flux, HTS (AID 488969). The settings on record: HEK293 rat mGluR8, GIRK (G protein-gated inwardly rectifying potassium channel) thallium flux, FluoZin2; at 10 µM; stronger effect = higher value; submaximal glutamate (EC20) added with thallium.
Chain of UniProt P70579 (P70579 whole entry, looked up): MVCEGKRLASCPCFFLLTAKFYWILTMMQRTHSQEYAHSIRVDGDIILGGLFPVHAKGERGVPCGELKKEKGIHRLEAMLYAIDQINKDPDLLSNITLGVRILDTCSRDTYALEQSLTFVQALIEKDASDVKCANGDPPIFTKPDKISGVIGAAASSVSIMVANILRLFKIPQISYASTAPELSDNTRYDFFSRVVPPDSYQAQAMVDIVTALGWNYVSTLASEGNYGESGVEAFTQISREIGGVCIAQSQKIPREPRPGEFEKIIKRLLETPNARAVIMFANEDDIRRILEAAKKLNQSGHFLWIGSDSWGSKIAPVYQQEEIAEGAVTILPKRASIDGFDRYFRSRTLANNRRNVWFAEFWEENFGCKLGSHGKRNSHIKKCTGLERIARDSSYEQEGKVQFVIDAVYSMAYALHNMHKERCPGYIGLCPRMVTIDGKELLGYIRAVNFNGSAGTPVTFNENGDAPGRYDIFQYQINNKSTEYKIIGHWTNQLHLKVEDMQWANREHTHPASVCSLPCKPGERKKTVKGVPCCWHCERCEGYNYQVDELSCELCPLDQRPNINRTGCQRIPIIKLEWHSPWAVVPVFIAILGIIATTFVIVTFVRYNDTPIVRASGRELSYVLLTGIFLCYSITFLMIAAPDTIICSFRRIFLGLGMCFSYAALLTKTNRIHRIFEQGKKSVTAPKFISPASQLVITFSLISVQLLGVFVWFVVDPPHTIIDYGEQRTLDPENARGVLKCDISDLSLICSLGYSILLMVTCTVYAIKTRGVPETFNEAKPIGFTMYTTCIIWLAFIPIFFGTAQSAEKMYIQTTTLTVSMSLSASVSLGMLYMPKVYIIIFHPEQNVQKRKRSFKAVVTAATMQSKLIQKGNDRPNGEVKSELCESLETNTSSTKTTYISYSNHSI
Turning to `Cc1ccc(N(CN2CCCC2=O)C(=O)c2ccc(OC(C)C)cc2)cc1`, the z-score is -0.471.

Take `CC(C)N1C(=O)S/C(=C/c2cccnc2)C1=O`: the z-score is -0.0572.

Regarding `C=CCSc1n[nH]c(-c2ccc(OCCCC)cc2)n1`, the z-score was -0.185.

In turn, `O=c1cc(NCCCO)c2ccccc2o1` had a z-score of 0.133.

As to `COc1ccc(Br)cc1CNc1ccc(S(N)(=O)=O)cc1`, the z-score was -0.284.

In turn, `Cc1c(NC(=O)C(C)OC(=O)CNC(=O)c2ccccc2)c(=O)n(-c2ccccc2)n1C` (stereo not given) came in with a z-score of 0.115.

Take `CCCOc1ncnc2c1[nH]c1ccccc12`: the z-score is -0.297.

On to `CCN(CC)S(=O)(=O)c1ccc(C(=O)NCCCN=C2NS(=O)(=O)c3ccccc32)cc1`, for which the z-score was -0.048.

`CSc1nc(-c2ccc(C)cc2)[nH]c1S(=O)(=O)c1ccccc1` had a z-score of 0.126.

On to `COc1ccc2cc3cc(C(=O)NCC4CCCO4)oc3nc2c1` (stereo not given), for which the z-score worked out at 0.71.

Consider `COc1cc(NC(=O)Cc2nn(C)c(=O)c3ccccc23)cc(OC)c1`, for which the z-score was -0.162.

For `N=C1C(c2ccccc2)=C(O)CN1c1cccc(S(N)(=O)=O)c1`, the z-score is -0.167.

Turning to `CC(O)Cc1nsc(NC(=O)c2cccs2)n1` (stereo not given), the z-score was -0.153.

In turn, `CCOc1ccc2nc(NC(=O)C(NS(=O)(=O)c3cccc4nsnc34)C(C)C)sc2c1` (stereo not given) returned a z-score of 0.208.

In the case of `Cc1cc(C)nc(NC2=NCC(=O)N2c2ccc(F)c(Cl)c2)n1`, the z-score is -0.151.

As for `O=C(O)c1ccc(N/N=C/c2cccc(F)c2)cc1`, the z-score is 0.873.

For `CCC(C)n1c(SCc2ccccc2)nc2ccsc2c1=O` (stereo not given), the z-score was -0.114.

As for `Cc1cc(NC(=O)c2cc(C(C)C)on2)nn1Cc1ccc(Cl)cc1`, the z-score stood at 0.132.

`CC1(C)CC(=O)C2=C(C1)N(c1ccccc1)C(N)=C(C#N)C2c1ccccc1` (stereo not given): the z-score is -0.49.

On to `CCOc1ccc(C(=O)/C=C/c2cn(CN3CCN(C)CC3)c3ccccc23)cc1`, for which the z-score was -0.0815.

Regarding `CC(C)c1ccc(C(=O)NNC(=O)C2CC=CCC2C(=O)O)cc1` (stereo not given), the z-score worked out at 0.0591.

For `O=C(NCCCc1ccccc1)c1ccccc1`, the z-score was -0.192.

Regarding `COCc1c(C(=O)OCc2nc(N)nc(Nc3ccccc3C)n2)oc2ccccc12`, the z-score is -0.996.

Compound `Brc1cc2c(cc1Cn1c(-c3cncs3)nc3ccccc31)OCO2` returned a z-score of 0.1.

On to `COC(=O)c1sc(NC(=O)CSc2nncs2)c(C(=O)OC)c1C`, for which the z-score stood at 0.489.

Turning to `COc1ccc2c(C)cc(Sc3nnnn3-c3ccccc3)nc2c1`, the z-score is -0.336.

For `O=C(CSc1nnc(SCc2ccccc2)s1)N/N=C/c1ccc(Cl)cc1Cl`, the z-score was -0.247.

`Cc1ccc(C2N(c3ccc(F)cc3)C(=O)C3CCCN32)cc1` (stereo not given) displayed a z-score of 0.214.

`O=C(c1cccnc1)N1CCN(C(=O)c2ccccc2F)CC1`: the z-score turned out to be 0.923.

For `COc1cccc(NC(=O)N2CCC(N3CCCCC3)CC2)c1`, the z-score is -0.892.

Regarding `COc1ccc(N2CCN(C(=O)C3CCCN(S(=O)(=O)c4cccc5cccnc45)C3)CC2)cc1` (stereo not given), the z-score worked out at 0.828.

For `CN(NC1CC(=O)N(c2ccccc2)C1=O)c1ccccc1` (stereo not given), the z-score is -0.00236.

`Cc1ccc(-n2nc(C(=O)c3ccccc3)n3c(=O)c(Cc4ccccc4)nnc23)cc1` returned a z-score of 0.105.

On to `O=C(NCc1ccco1)c1ccc(N2CCCCC2)c([N+](=O)[O-])c1`, for which the z-score was -0.238.

`Cc1c(NC(=O)CN2C(=O)C3C4C=CC(C4)C3C2=O)c(=O)n(-c2ccccc2)n1C` (stereo not given): the z-score was -0.00489.

Turning to `O=C(CC1OC(=O)c2ccccc21)c1ccco1` (stereo not given), the z-score is -0.219.

With `O=C(O)CCc1ccc(-c2ccccc2)n1Cc1ccco1`, the z-score was -0.67.

As for `COc1ccc(Nc2oc(COc3ccccc3F)nc2C#N)cc1`, the z-score is -0.507.

As to `CCOC(=O)CSc1nc(C2CC2)cc(-c2ccc(Cl)cc2)c1C#N`, the z-score was found to be 0.684.

Turning to `O=C(Nc1cccc(C(F)(F)F)c1)c1cccnc1N1CCN(c2ccccc2)CC1`, the z-score is -0.134.

In the case of `CCOc1cc(C2NC(=O)NC(O)(C(F)(F)F)C2C(=O)c2ccccc2)ccc1OC` (stereo not given), the z-score was determined as 0.243.

With `Cc1sc2nc(SCC(N)=O)n(C)c(=O)c2c1C`, the z-score was -0.177.

As to `Cc1cccc(OCc2nnc(SCC(=O)Nc3ccc(C)c(C)c3)o2)c1`, the z-score was 0.728.

In the case of `CC(C)c1ccccc1NC(=O)c1cccc(NC(=O)c2ccccc2)c1`, the z-score was -0.797.

Compound `CS/C(=C\[N+](=O)[O-])Nc1ccc(F)cc1` displayed a z-score of 0.177.

The compound `CCCCOc1ccc(-c2nc(/C=N/c3nccs3)c(O)o2)cc1` returned a z-score of 2.84.

`Cc1cccc(N(CC(O)CON=C2c3ccccc3-c3ccccc32)S(C)(=O)=O)c1` (stereo not given): the z-score was determined as 0.773.

`CCOc1ccccc1NC(=O)CC1Nc2cc(C)c(C)cc2NC1=O` (stereo not given): the z-score is -0.142.

With `Cc1ccc(OCC(=O)n2nc(C)cc2C)c(Br)c1`, the z-score was -0.701.

As for `O=C(NC1(C(F)(F)F)NC(=O)N(Cc2ccco2)C1=O)c1cccnc1` (stereo not given), the z-score was -0.0725.

Consider `O=C(C1CCCO1)N1CCN(C(c2ccccc2)c2ccccc2)CC1` (stereo not given), for which the z-score amounted to 0.482.

For `CC(=O)c1cccc(N(CC(=O)Nc2ccc(F)cc2F)S(C)(=O)=O)c1`, the z-score worked out at 0.487.

The compound `CCc1ccc(N2CC(C(=O)Nc3nnc(CC)s3)CC2=O)cc1` (stereo not given) had a z-score of 0.169.

With `CC(C)NC(NC(=O)Cc1ccccc1)C(Cl)(Cl)Cl` (stereo not given), the z-score was -0.12.

Turning to `CCOC(=O)N1CCC(NC(=O)c2cnn3cccnc23)CC1`, the z-score is -0.469.

As for `CCn1c(CC(=O)Nc2ccc(C)cc2)nnc1SCC(=O)Nc1nc(C)cs1`, the z-score was -0.514.

`Cc1cccc(OCc2nnc(SCc3cc(=O)[nH]c4ccccc34)n2-c2ccccc2)c1`: the z-score was -0.403.

On to `CC(C)(C)NC(=O)NC(=O)COC(=O)CNC(=O)c1cccc(F)c1`, for which the z-score is -1.54.

Compound `CC(=O)c1cc(-c2ccccc2)n(CC(=O)Nc2ccc(C)c(C)c2)c1C` returned a z-score of 0.091.

Regarding `CCOC(=O)N1CCN(C(=O)CSc2nnc(COc3ccccc3)o2)CC1`, the z-score was -0.239.

`CCOc1c2ccc(C(=O)NCc3ccco3)cc2nn1CC`: the z-score was -0.189.

In the case of `O=C(C(=O)N1CC=C(c2ccccc2)CC1)c1c[nH]c2ccccc12`, the z-score is -0.198.

As for `CN(C)CCOc1ccccc1C(C)(C)C`, the z-score worked out at 0.0255.

Consider `Cc1nn(-c2ccccc2)c(Cl)c1/C=N/Nc1ccc(Cl)c(C(=O)O)c1`, for which the z-score was -0.82.

As for `Cc1ccc(Oc2cc(N3CCOCC3)nc(-c3ccccc3)n2)cc1`, the z-score was -0.00509.

Turning to `CCOC(=O)C1=C(C)NC(=O)NC1c1ccc(OCC(N)=O)cc1` (stereo not given), the z-score was -0.412.

In the case of `C/C=C/C=N/NC(=O)CN(c1ccc(Br)cc1)S(=O)(=O)c1ccccc1`, the z-score is -0.24.

For the compound `N=C1C(c2nc3ccccc3c(=O)[nH]2)=C(O)CN1c1ccccc1`, the z-score was found to be 0.297.

For `COc1cc(C2Nc3cc(Cl)c(S(N)(=O)=O)cc3S(=O)(=O)N2)cc(OC)c1OC` (stereo not given), the z-score is -0.0667.

Turning to `COC(=O)c1ccc(NC(=O)C23CC4CC(C2)CC(n2cnc(Cl)n2)(C4)C3)cc1`, the z-score was -0.385.

The values are drawn from PubChem BioAssay AID488969 (Vanderbilt High Throughput Screening Facility, 2010).
